# Assay results published in PubChem BioAssay AID1345083 (National Center for Advancing Translational Sciences (NCATS), 2018).
# Several values for one entry are separate records, joined by “and”; a condition that tells them apart may be missing. Equal entries are not always repeated. Among all 94,000 compounds or so, about 6,200 (6.6%) were called active. The shares of active, inactive and inconclusive entries below differ from those in the screen. Calls come from the whole dose curve; as a rule, active = well fitted inhibition curve with a large enough effect; inconclusive = small, poorly fitted or top-dose-only effect; inactive = flat fitted curve, though single readings scatter. Potencies of inconclusive entries are doubtful fits and often do not repeat.
# Assay: Cytotoxic Profiling in HEK 293 Cell Line of Diverse Libraries Using Quantitative High-Throughput Screening; note: nearly all actives have a fitted effect of over 60% in size
# Conditions: HEK 293 viability, ATP luminescence (CellTiter-Glo), 48-72 h; series mostly up to 115 µM
# Outline: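 Pintool-delivered compounds were incubated with HEK 293 cells (250 cells/well) at 37 degree Celsius for 48 or 72 hr. ATP-dependent luminescence (CellTiter-Glo) then reported remaining viable cells.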
# Potency is the fitted concentration of half-maximal effect; tags give direction and shape of the fitted curve.
row,SMILES,Potency
1,O=C1c2cc(N3CCOCC3)nc(-c3cnc4[nH]ccc4c3)c2CN1CC(F)(F)F,"inconclusive: 8.91 µM [inhibitor, full curve, poor fit]"
2,Cn1nccc1C(=O)N1CCC2(CC1)NCCc1c2[nH]c2ccccc12,"inconclusive: 100 µM [inhibitor, single point]"
3,O=C(NCCc1ccccc1)c1nc2cccnc2n(C2CC2)c1=O,inactive
4,CCn1cc(S(=O)(=O)N2CCCC(Cc3noc(-c4cnccn4)n3)C2)cn1 (stereo unspecified),inactive
5,O=C(Nc1cccnc1)c1nc2c(o1)CCN(Cc1cccc(O)c1)CC2,"inconclusive: 100 µM [inhibitor, partial curve]"
6,COc1cccc(CCNC(=O)c2cc(-c3ccc(C(F)(F)F)cc3)nc3c2cnn3C)c1,"inconclusive: 89.1 µM [inhibitor, single point]"
7,COc1ccc(C2Cn3cnc(C(=O)N4CCC(C(=O)NCc5ccccc5)CC4)c3CO2)cc1 (stereo unspecified),inactive
8,O=C(O)c1ccc(-c2ccc(OC(F)(F)F)cc2)cc1,inactive
9,COc1ccc2nc([C@H]3CCN(CCCc4ccccc4)C3)[nH]c2c1,active: 63.1 µM
10,CCc1noc(-c2nc(Cc3ccccc3C)no2)n1,inactive
11,Cc1noc(C)c1S(=O)(=O)N1CC(N(CC(C)C)C2CCOCC2)C1,"inconclusive: 100 µM [inhibitor, single point]"
12,O=C(c1ccc(Cl)cc1)N1CCCN(c2ccc3nnc(-c4ccccc4)n3n2)CC1,inactive
13,CCc1ccc(NC(=O)Cn2c(N3CCN(c4ccccc4)CC3)nc(C)cc2=O)cc1,"inconclusive: 89.1 µM [inhibitor, single point]"
14,Cc1cc2ncc(C(=O)NCc3cccc(C(F)(F)F)c3)cn2n1,"inconclusive: 39.8 µM [inhibitor, partial curve, poor fit]"
15,Cc1ccoc1C(=O)N1C[C@@H](CO)[C@H](c2ccccn2)C1,inactive
16,O=C(NCCc1ccc(Cl)cc1)c1ccc2oc(-c3ccncc3)nc2c1,inactive
17,CC(C)(C)CC(=O)N1CCC(N2C(=O)CCC2C(=O)NCc2ccccc2)CC1 (stereo unspecified),"inconclusive: 100 µM [inhibitor, single point]"
18,CC(=O)Nc1ccc(CNC[C@H]2Cn3c(-c4ccc5c(c4)OCCO5)cnc3CO2)cc1,inactive
19,C=CCNC(=O)c1ccc(Cn2ccn3nc4c(c3c2=O)CCCC4)cc1,"inconclusive: 50.1 µM [inhibitor, partial curve, poor fit]"
20,O=C(Nc1ccc2ncnc(N3CCCC3)c2c1)c1ccc(F)cc1Cl,"inconclusive: 50.1 µM [inhibitor, partial curve, poor fit]"
21,COc1ccc(S(=O)(=O)N2CCc3c(C(=O)NCCc4ccccn4)cccc32)cc1,active: 44.7 µM
22,O=C(NCCc1ccncc1)C1c2ccccc2C(=O)N(C2CCCCC2)C12CCCCC2 (stereo unspecified),active: 39.8 µM

row,SMILES,Potency
1,CCC(NC(=O)c1cc(Cn2ccc3ccccc32)[nH]n1)c1ncccc1C (stereo unspecified),"inconclusive: 50.1 µM [inhibitor, partial curve, poor fit]"
2,CN1Cc2nc(-c3cccc(C(F)(F)F)c3)ccc2OCC1=O,"inconclusive: 100 µM [inhibitor, partial curve]"
3,CCCCCNC(=O)Cc1csc2nc(C)c(-c3cc(C)n(-c4cc(Cl)ccc4C)n3)c(=O)n12,"inconclusive: 79.4 µM [inhibitor, partial curve]"
4,CN1c2cc(C(=O)Nc3cccc(C(F)(F)F)c3)ccc2C(=O)N2CCCCCC21 (stereo unspecified),"inconclusive: 15.8 µM [inhibitor, full curve, poor fit]"
5,Cc1ccc(C(=O)NC2CCN(c3cc(-c4ccccc4)[nH]n3)CC2)cc1F,"inconclusive: 44.7 µM [inhibitor, partial curve, poor fit]"
6,CN(C)Cc1ccc(-c2cc(-c3ccc(=O)[nH]c3)c3cncn3c2)cc1,"inconclusive: 79.4 µM [inhibitor, partial curve, poor fit]"
7,COc1ccc(Nc2cnc3ccc(-c4ccccc4)nn23)cc1OC,active: 63.1 µM
8,Oc1ccccc1CN1CCOC[C@H]1c1ncc(-c2ccc(F)cc2F)[nH]1,active: 79.4 µM
9,CC(=O)NC1CCCN(Cc2ccc(-c3cc(C)cc(C)c3)cc2)C1 (stereo unspecified),"inconclusive: 31.6 µM [inhibitor, partial curve, poor fit]"
10,COc1ccccc1C(=O)N1CCC(Cc2nc(-c3ccc(F)cc3)no2)CC1,"inconclusive: 28.2 µM [inhibitor, partial curve, poor fit]"
11,Cc1cc(C)c(S(=O)(=O)N2CCn3c(nn(CC4CC4)c3=O)C2)c(C)c1,"inconclusive: 39.8 µM [inhibitor, partial curve, poor fit]"
12,Cc1noc2c(NC3CCCCC3)cc(-c3ccsc3)nc12,active: 89.1 µM
13,Cn1ncc2c(C(=O)Nc3cccc(F)c3)cc(-c3cccc(F)c3)nc21,"inconclusive: 31.6 µM [inhibitor, partial curve, poor fit]"
14,O=[S+]([O-])(c1cccc(C(F)(F)F)c1)N1CC(Oc2ccc(F)cc2F)C1,inactive
15,COc1ccc(-c2nc3cc(C)ccc3cc2CN2CCC(N(C)C)C2)cc1 (stereo unspecified),"inconclusive: 89.1 µM [inhibitor, single point]"
16,Cc1cccc(C)c1-c1cc(C(=O)NCCCc2ccccc2)c2cnn(C)c2n1,"inconclusive: 50.1 µM [inhibitor, partial curve, poor fit]"
17,Cc1ccc(C(=O)N2CCC(CCC(=O)N3CCc4ccccc4C3)CC2)cc1,active: 44.7 µM
18,O=C(c1ccoc1)N1CCCC(c2nc(CCOCC3CCCC3)no2)C1 (stereo unspecified),"inconclusive: 89.1 µM [inhibitor, single point]"
19,CN1CCC(NC[C@H]2O[C@H](Cc3cc(-c4ccc(F)cc4)on3)CC[C@@H]2O)CC1,"inconclusive: 112 µM [inhibitor, partial curve, poor fit]"
20,NC1CC(c2nnc(COc3ccc4c(c3)CCNCC4)n2C2CC2)C1 (stereo unspecified),"inconclusive: 79.4 µM [inhibitor, partial curve, poor fit] and active: 17.8 µM"
21,O=C(C1CCN(c2nccc(Nc3ccccc3Cl)n2)CC1)N1CCOCC1,"inconclusive: 56.2 µM [inhibitor, partial curve, poor fit]"
22,CCn1ncc(CN2CCCC23CCN(c2ccc(C(F)(F)F)cn2)CC3)c1C,"inconclusive: 50.1 µM [inhibitor, partial curve, poor fit]"

row,SMILES,Potency
1,COc1cccc(C(=O)N[C@@H]2CN(Cc3cccnc3)C[C@H]2CN(C)C)c1OC,"inconclusive: 89.1 µM [inhibitor, partial curve, poor fit]"
2,COc1cccc(C(=O)N2CCC3(CC2)CC(c2cccc(C(F)(F)F)c2)=NO3)c1,active: 44.7 µM
3,COc1ccc(OCc2nc(C)c(CCO)c(=O)n2CC(=O)Nc2cc(OC)cc(OC)c2)cc1,inactive
4,O=C(O)CCC(=O)N1CCC2(CC1)Cc1ccccc1N(C(=O)c1ccc(Cl)cc1)C2,inactive
5,Cc1cc(C)n(CC(=O)N2CC(N(C)Cc3cccnc3)C2)n1,inactive
6,O=C([C@H]1C[C@@H](O)[C@H](O)[C@@H]2N=C(Nc3ccc(Cl)cc3)S[C@@H]21)N1CCOCC1,inactive
7,COc1cccc(CN2Cc3nc(N(C)c4ccccc4)ccc3OCC2=O)c1,active: 89.1 µM
8,O=C(N[C@@H]1CN(C(=O)Nc2ccc(OC(F)(F)F)cc2)CCC[C@H]1O)c1ccc(OCCN2CCOCC2)cc1,"inconclusive: 79.4 µM [inhibitor, partial curve, poor fit]"
9,CCCNC(=O)N[C@@H]1C[C@H](COc2ccc(S(C)(=O)=O)cc2)[C@@H](O)[C@H]1O,inactive
10,COCCC(=O)N1CCCN(CCc2ccccc2)c2ccccc21,"inconclusive: 31.6 µM [inhibitor, partial curve, poor fit]"
11,COCCn1c(C)cnc1CC1CCCN(Cc2ccc(F)c(F)c2)C1 (stereo unspecified),"inconclusive: 89.1 µM [inhibitor, single point]"
12,O=c1c2c3c(nn2ccn1Cc1ccccc1)CCCC3,"inconclusive: 100 µM [inhibitor, single point]"
13,O=C(O)COc1ccc(-c2nccc3c2C(=O)N(Cc2ccccc2)CC(COc2ccc(Cl)cc2)O3)cc1 (stereo unspecified),inactive
14,CC1CCN(C(=O)c2cc3n(n2)CC(c2ccc(Cl)cc2)OC3)CC1 (stereo unspecified),"inconclusive: 44.7 µM [inhibitor, partial curve, poor fit]"
15,CN(C)C(=O)c1ccc(OC2CCN(C(=O)c3ccc(Cl)cc3)CC2)nc1,"inconclusive: 50.1 µM [inhibitor, partial curve, poor fit]"
16,Cc1cccc(CN2C[C@@H]3C(=O)N(Cc4ccc5c(c4)OCO5)C(=O)[C@@H]3C2)c1,"inconclusive: 89.1 µM [inhibitor, single point]"
17,COc1ccccc1-c1ccc(CN2CCC(N[S+](=O)([O-])c3cccc(C(F)(F)F)c3)C2)cc1 (stereo unspecified),active: 20 µM
18,O=C1CCN(CC(O)Cc2ccccc2)c2cc3c(cc2CN1Cc1ccccc1)OCO3 (stereo unspecified),active: 39.8 µM
19,COc1cccc(CC(=O)N2CCc3nn(Cc4ccccc4)c(=O)n3CC2)c1,inactive
20,Cc1ccc(CNC(=O)c2ccc3c(c2)CN(Cc2cccc(F)c2)CCO3)cc1,"inconclusive: 50.1 µM [inhibitor, partial curve, poor fit]"
21,COc1ccc(C2Cn3nnc(C(=O)N4CCC(C(=O)NC5CCC(C)CC5)CC4)c3CO2)cc1 (stereo unspecified),inactive
22,CCOC(=O)C1CCCN(C(=O)c2nc3sccn3c2-c2cccnc2)C1 (stereo unspecified),inactive
